Reference: the supplement of paper PMC9174493
Some of the results follow. Single values of this set are uncertain. Values with irradiation are relative to irradiated vehicle.

Columns and labels:
[1] = system: A549-Dual; assay: NF-kB reporter (SEAP) activity, viability-corrected, relative to vehicle (fold change vs vehicle); higher = more activation of STING-IRF / NF-kB immune response reporter; details: 10 µM
[2] = system: A549-Dual; assay: ISRE reporter (Lucia luciferase) activity, viability-corrected, relative to vehicle (fold change vs vehicle); higher = more activation of STING-IRF / NF-kB immune response reporter; details: 10 µM
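For NF-kB reporter (SEAP) activity, viability-corrected, relative to vehicle in this document: viability correction based on the alamar blue assay, with concentrations leaving 10% survival or less dropped.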

Row | SMILES | NF-kB reporter ([1]; irradiation: 8 Gy/4 fr) | NF-kB reporter ([1]; irradiation: none) | ISRE reporter ([2]; irradiation: 8 Gy/4 fr) | ISRE reporter ([2]; irradiation: none)
1 | O=C1C(CCC(O)c2ccc(F)cc2)C(c2ccc(O)cc2)N1c1ccc(F)cc1 (stereo unspecified) [Ezetimibe] | 0.728 | 0.879 | 0.594 | 0.754
2 | C=Cc1c(C)c2[n-]c1=CC1=NC(=CC3=C(C)C(=C([O-])[O-])C(=N3)C(CC(=O)[O-])=C3N=C(C=2)C(C)C3CCC(=O)[O-])C(CC)=C1C.[Cu+2].[Na+].[Na+].[Na+] (stereo unspecified) [Chlorophyllin (sodium copper salt)] | 0.576 | 0.704 | 0.225 | 0.319
3 | CC(=O)[N]([Na])S(=O)(=O)c1ccc(N)cc1.O [Sulfacetamide sodium salt hydrate] | 0.911 | 1.05 | 0.846 | 0.78
4 | CC1OC1P(=O)(O)O.NC(CO)(CO)CO (stereo unspecified) [Fosfomycin Tromethamine] | 1.21 | 0.905 | 1.04 | 0.671
5 | CCN(CCCCOC(=O)c1ccc(OC)c(OC)c1)C(C)Cc1ccc(OC)cc1.Cl (stereo unspecified) [Mebeverine Hydrochloride] | 0.867 | 0.835 | 0.938 | 0.885
6 | C=CC1(C)CC(OC(=O)CSCCN(CC)CC)C2(C)C(C)CCC3(CCC(=O)C32)C(C)C1O (stereo unspecified) [Tiamulin] | 0.782 | 0.963 | 0.881 | 1.17
7 | CCCCCCCCCCCCCCCCCCC(=O)O [Nonadecanoic acid] | 1.34 | 0.664 | 1.13 | 0.509
8 | O=C([O-])C(O)C(O)C(O)C(O)C(=O)[O-].O=C([O-])C(O)C(O)C(O)C(O)C(=O)[O-].O=C([O-])C(O)C(O)C(O)C(O)C(=O)[O-].[Fe+3].[Fe+3] (stereo unspecified) [Iron sucrose] | 1.54 | 1.23 | 1.45 | 0.966
9 | CCc1ccc(CCOc2ccc(CC3SC(=O)NC3=O)cc2)nc1 (stereo unspecified) [Pioglitazone] | 0.759 | 0.881 | 0.592 | 0.958
10 | C[N+](C)(C)CC(O)CC(=O)O.[Cl-] (racemic) [DL-Carnitine HCl] | 0.887 | 1.08 | 0.921 | 0.959
11 | Cc1noc(NS(=O)(=O)c2ccc(N)cc2)c1C [Sulfisoxazole] | 0.72 | 0.946 | 0.772 | 0.674
12 | Cl.O=C(O)c1cn(-c2ccc(F)cc2)c2cc(N3CCNCC3)c(F)cc2c1=O [Sarafloxacin HCl] | 0.95 | 1.27 | 0.885 | 1.26
13 | CC(C)(C)NCC(O)COc1cccc2c1CC(O)C(O)C2 (stereo unspecified) [Nadolol] | 0.716 | 0.804 | 0.802 | 0.683
14 | C=C1C2CCC(C2)C1(C)C (stereo unspecified) [Camphene] | 0.864 | 0.783 | 0.861 | 0.674
15 | COc1cc(-c2oc3cc(O)cc(O)c3c(=O)c2O)ccc1O [Isorhamnetin] | 0.401 | 0.526 | 0.209 | 0.203
16 | CN1CCN(CCCN2c3ccccc3Sc3ccc(C(F)(F)F)cc32)CC1 [Trifluoperazine] | 0.775 | 0.708 | 0.641 | 0.764
17 | COC1/C=C/OC2(C)Oc3c(C)c(O)c4c(O)c(c(/C=N/N5CCN(C)CC5)c(O)c4c3C2=O)NC(=O)/C(C)=C/C=C/C(C)C(O)C(C)C(O)C(C)C(OC(C)=O)C1C (stereo unspecified) [Rifampin] | 0.991 | 1.04 | 1.03 | 0.83
18 | CNCCC(Oc1cccc2ccccc12)c1cccs1.Cl (stereo unspecified) [Duloxetine HCl] | 0.529 | 0.681 | 0.787 | 0.973
19 | CC(C)C[C@H](N)C(=O)O [L-Leucine] | 0.826 | 0.87 | 0.834 | 0.763
20 | CC1CS(=O)(=O)CCN1/N=C/c1ccc([N+](=O)[O-])o1 (stereo unspecified) [Nifurtimox] | 0.785 | 0.906 | 0.694 | 0.72
21 | CCCCC(CC)COC(=O)c1ccccc1O (stereo unspecified) [Octisalate] | 0.731 | 1.19 | 0.762 | 1.06
22 | CS(=O)(=O)CCNCc1ccc(-c2ccc3ncnc(Nc4ccc(OCc5cccc(F)c5)c(Cl)c4)c3c2)o1.Cc1ccc(S(=O)(=O)O)cc1.Cc1ccc(S(=O)(=O)O)cc1.O [Lapatinib ditosylate monohydrate] | 1.26 | 0.81 | 1.26 | 0.975
23 | NCC(=O)[O-].NCC(=O)[O-].[Fe+2] [Ferrous Bisglycinate] | 0.848 | 0.898 | 0.764 | 0.834
24 | CCNC(=O)C1CCCN1C(=O)C(CCCNC(=N)N)NC(=O)C(CC(C)C)NC(=O)C(C)NC(=O)C(Cc1ccc(O)cc1)NC(=O)C(CO)NC(=O)C(Cc1c[nH]c2ccccc12)NC(=O)C(Cc1c[nH]cn1)NC(=O)C1CCC(=O)N1 (stereo unspecified) [Alarelin Acetate] | 1.47 | 0.81 | 1.65 | 0.824
25 | O=C1c2c(O)cccc2C(C2OC(CO)C(O)C(O)C2O)c2cc(CO)cc(O)c21 (stereo unspecified) [Aloin] | 1.18 | 0.811 | 1.07 | 0.752
26 | COc1nc(C)nc(Cl)c1NC1=NCCN1 [Moxonidine] | 0.744 | 1.03 | 0.714 | 0.841
27 | COC1(NC(=O)C(C(=O)[O-])c2ccc(O)cc2)C(=O)N2C(C(=O)[O-])=C(CSc3nnnn3C)COC21.[Na+].[Na+] (stereo unspecified) [Latamoxef sodium] | 1.03 | 0.909 | 0.885 | 0.706

Row | SMILES | NF-kB reporter ([1]; irradiation: 8 Gy/4 fr) | NF-kB reporter ([1]; irradiation: none) | ISRE reporter ([2]; irradiation: 8 Gy/4 fr) | ISRE reporter ([2]; irradiation: none)
28 | CS(=O)(=O)c1ccc(C(O)C(CO)NC(=O)C(Cl)Cl)cc1 (stereo unspecified) [Thiamphenicol] | 0.538 | 1.17 | 0.331 | 0.453
29 | C[N+](C)(C)C[C@H](O)CC(=O)O.[Cl-] [L-Carnitine hydrochloride] | 0.74 | 0.832 | 0.748 | 0.658
30 | COc1cc2nc(N(C)CCCNC(=O)C3CCCO3)nc(N)c2cc1OC (stereo unspecified) [Alfuzosin] | 0.873 | 1.01 | 1.23 | 1.09
31 | CCN(CC)CC(=O)Oc1ccc(NC(C)=O)cc1.Cl [Propacetamol hydrochloride] | 0.458 | 0.99 | 0.502 | 0.799
32 | C=C(C)C1CC=C(C)C(=O)C1 (single isomer, unassigned; (+)) [(+)-(S)-Carvone] | 0.774 | 0.619 | 0.696 | 0.459
33 | CCCc1nc(C(C)(C)O)c(C(=O)O)n1Cc1ccc(-c2ccccc2-c2nnn[nH]2)cc1 [Olmesartan] | 0.762 | 1.2 | 0.745 | 0.749
34 | CC(CN1c2ccccc2Sc2ccccc21)N(C)C.Cl (stereo unspecified) [Promethazine HCl] | 0.698 | 0.884 | 1.07 | 1.25
35 | COc1ccnc(CS(=O)c2nc3cc(-n4cccc4)ccc3[n]2[Na])c1C (stereo unspecified) [Ilaprazole sodium] | 1.14 | 0.957 | 1.34 | 1.3
36 | CCCCCCCCCCCCCCCCOc1nc2ccc(C)cc2c(=O)o1 [Cetilistat] | 1.13 | 0.645 | 1.12 | 0.572
37 | NCC(O)c1ccc(O)c(O)c1.O.O=C(O)C(O)C(O)C(=O)O (stereo unspecified) [Noradrenaline bitartrate monohydrate] | 1.16 | 1.3 | 1.06 | 1.2
38 | CC(C)=CCC/C(C)=C/CC/C(C)=C/CC/C=C(\C)CC/C=C(\C)CCC=C(C)C [Squalene] | 0.94 | 0.901 | 0.935 | 0.697
39 | CCC(=O)OC(OP(=O)(CCCCc1ccccc1)CC(=O)N1CC(C2CCCCC2)CC1C(=O)[O-])C(C)C.[Na+] (stereo unspecified) [Fosinopril Sodium] | 0.9 | 1.07 | 0.961 | 0.912
40 | Cc1cc(=O)[nH]c(=S)[nH]1 [Methylthiouracil] | 0.777 | 1.1 | 0.827 | 0.819
41 | CC(=O)OCC(COC(C)=O)OC(C)=O [Triacetin] | 0.941 | 1.1 | 0.837 | 0.882
42 | N[C@@H](CO)C(=O)O [L-serine] | 0.861 | 0.827 | 0.837 | 0.696
43 | COc1ccc(C(=O)c2ccc(C)cc2)c(O)c1 [Mexenone] | 0.677 | 0.43 | 0.577 | 0.506
44 | OC(CNCC(O)C1CCc2cc(F)ccc2O1)C1CCc2cc(F)ccc2O1 (stereo unspecified) [Nebivolol] | 0.656 | 1.35 | 0.565 | 1.24
45 | CC1(O)CCC(C(C)(C)O)CC1.O (stereo unspecified) [Terpin hydrate] | 0.96 | 1.3 | 1.09 | 0.877
46 | CC(C)=CCC/C(C)=C/CO [Geraniol] | 1.33 | 0.738 | 1.42 | 0.763
47 | Cl.Cl.O=C1c2c(O)ccc(O)c2C(=O)c2c(NCCNCCO)ccc(NCCNCCO)c21 [Mitoxantrone 2HCl] | 4.53 | 7.33 | 0.297 | 1.12
48 | NCc1ccccc1CC(=O)NC1C(=O)N2C(C(=O)O)=C(CSc3nnnn3CC(=O)O)CSC12 (stereo unspecified) [Ceforanide] | 1.18 | 1.03 | 0.858 | 0.594
49 | COc1ccccc1OCCNCC(O)COc1cccc2[nH]c3ccccc3c12 (stereo unspecified) [Carvedilol] | 1.06 | 0.928 | 1.69 | 1.59
50 | CC(CCC(=O)O)C1CCC2C3CCC4CC(O)CCC4(C)C3CCC12C (stereo unspecified) [Lithocholic acid] | 0.7 | 0.438 | 0.597 | 0.394
51 | C1CCN2CC3CC(CN4CCCCC34)C2C1 (stereo unspecified) [Sparteine] | 0.878 | 1.04 | 0.691 | 0.51
52 | CC(=O)Oc1c(C)c(C)c2c(c1C)CCC(C)(CCCC(C)CCCC(C)CCCC(C)C)O2 (stereo unspecified) [Vitamin E Acetate] | 0.86 | 0.955 | 0.736 | 0.636
53 | CC(=O)NCC1CN(c2ccc(N3CCOCC3)c(F)c2)C(=O)O1 (stereo unspecified) [Linezolid] | 0.491 | 0.943 | 0.439 | 0.735
54 | CC1c2cccc(O)c2C(=O)C2=C(O)C3(O)C(=O)C(C(N)=O)=C(O)C(N(C)C)C3C(O)C21.CC1c2cccc(O)c2C(=O)C2=C(O)C3(O)C(=O)C(C(N)=O)=C(O)C(N(C)C)C3C(O)C21.CCO.Cl.Cl.O (stereo unspecified) [Doxycycline Hyclate] | 0.6 | 0.929 | 0.385 | 1.04
